Some of the results follow.
Legend:
Assay in all cases: glycan array binding signal (z-score within array); higher = stronger binding
Conditions in all cases: glycan notation: IUPAC condensed, linker removed
[1] = molecular target: Gal(b1-4)GlcNAc(b1-3)Gal(b1-4)GlcNAc(b1-3)Gal(b1-4)GlcNAc(b1-3)Gal(b1-4)GlcNAc(b1-2)Man(a1-3)[Gal(b1-4)GlcNAc(b1-3)Gal(b1-4)GlcNAc(b1-3)Gal(b1-4)GlcNAc(b1-3)Gal(b1-4)GlcNAc(b1-2)Man(a1-6)]Man(b1-4)GlcNAc(b1-4)GlcNAc
Procedure, shortened: (§1)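 The Consortium for Functional Glycomics database supplied 3228 glycan arrays, of which those lacking an available protein sequence were dropped. The binding signal, a within-array Z-score, was averaged across arrays of the same protein sequence and across linkers. Negative scores can be read as non-binding.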

[2] = molecular target: Gal(b1-4)GlcNAc(b1-3)Gal(b1-4)GlcNAc(b1-3)Gal(b1-4)GlcNAc(b1-3)Gal(b1-4)GlcNAc(b1-2)Man(a1-3)[Gal(b1-4)GlcNAc(b1-3)Gal(b1-4)GlcNAc(b1-3)Gal(b1-4)GlcNAc(b1-3)Gal(b1-4)GlcNAc(b1-2)Man(a1-6)]Man(b1-4)GlcNAc(b1-4)[Fuc(a1-6)]GlcNAc
Procedure, shortened: as §1

[3] = molecular target: Gal(b1-4)GlcNAc(b1-3)Gal(b1-4)GlcNAc(b1-3)Gal(b1-4)GlcNAc(b1-3)Gal(b1-4)GlcNAc(b1-2)[Gal(b1-4)GlcNAc(b1-3)Gal(b1-4)GlcNAc(b1-3)Gal(b1-4)GlcNAc(b1-3)Gal(b1-4)GlcNAc(b1-6)]Man(a1-6)[Gal(b1-4)GlcNAc(b1-3)Gal(b1-4)GlcNAc(b1-3)Gal(b1-4)GlcNAc(b1-3)Gal(b1-4)GlcNAc(b1-2)Man(a1-3)]Man(b1-4)GlcNAc(b1-4)[Fuc(a1-6)]GlcNAc
Procedure, shortened: as §1

[4] = molecular target: Gal(b1-4)GlcNAc(b1-3)Gal(b1-4)GlcNAc(b1-3)Gal(b1-4)GlcNAc(b1-3)Gal(b1-4)GlcNAc(b1-3)Gal(b1-4)GlcNAc(b1-2)Man(a1-3)[Gal(b1-4)GlcNAc(b1-3)Gal(b1-4)GlcNAc(b1-3)Gal(b1-4)GlcNAc(b1-3)Gal(b1-4)GlcNAc(b1-3)Gal(b1-4)GlcNAc(b1-2)Man(a1-6)]Man(b1-4)GlcNAc(b1-4)GlcNAc
Procedure, shortened: as §1

[5] = molecular target: Gal(b1-4)GlcNAc(b1-3)Gal(b1-4)GlcNAc(b1-3)Gal(b1-4)GlcNAc(b1-3)Gal(b1-4)GlcNAc(b1-3)Gal(b1-4)GlcNAc(b1-2)Man(a1-3)[Gal(b1-4)GlcNAc(b1-3)Gal(b1-4)GlcNAc(b1-3)Gal(b1-4)GlcNAc(b1-3)Gal(b1-4)GlcNAc(b1-3)Gal(b1-4)GlcNAc(b1-2)Man(a1-6)]Man(b1-4)GlcNAc(b1-4)[Fuc(a1-6)]GlcNAc
Procedure, shortened: as §1

[6] = molecular target: Gal(b1-4)GlcNAc(b1-3)Gal(b1-4)GlcNAc(b1-3)Gal(b1-4)GlcNAc(b1-3)Gal(b1-4)GlcNAc(b1-3)Gal(b1-4)GlcNAc(b1-2)[Gal(b1-4)GlcNAc(b1-3)Gal(b1-4)GlcNAc(b1-3)Gal(b1-4)GlcNAc(b1-3)Gal(b1-4)GlcNAc(b1-3)Gal(b1-4)GlcNAc(b1-6)]Man(a1-6)[Gal(b1-4)GlcNAc(b1-3)Gal(b1-4)GlcNAc(b1-3)Gal(b1-4)GlcNAc(b1-3)Gal(b1-4)GlcNAc(b1-3)Gal(b1-4)GlcNAc(b1-2)Man(a1-3)]Man(b1-4)GlcNAc(b1-4)[Fuc(a1-6)]GlcNAc
Procedure, shortened: as §1

[7] = molecular target: Gal(b1-4)GlcNAc(b1-3)Gal(b1-4)GlcNAc(b1-3)Gal(b1-4)GlcNAc(b1-3)Gal(b1-4)GlcNAc(b1-3)Gal(b1-4)GlcNAc(b1-3)Gal(b1-4)GlcNAc(b1-2)Man(a1-3)[Gal(b1-4)GlcNAc(b1-3)Gal(b1-4)GlcNAc(b1-3)Gal(b1-4)GlcNAc(b1-3)Gal(b1-4)GlcNAc(b1-3)Gal(b1-4)GlcNAc(b1-3)Gal(b1-4)GlcNAc(b1-2)Man(a1-6)]Man(b1-4)GlcNAc(b1-4)GlcNAc
Procedure, shortened: as §1

[8] = molecular target: Gal(b1-4)GlcNAc(b1-3)Gal(b1-4)GlcNAc(b1-3)GalNAc
Procedure, shortened: as §1

[9] = molecular target: Gal(b1-4)GlcNAc(b1-3)Gal(b1-4)GlcNAc(b1-3)[Gal(b1-4)GlcNAc(b1-3)Gal(b1-4)GlcNAc(b1-6)]GalNAc
Procedure, shortened: as §1

[10] = molecular target: Gal(b1-4)GlcNAc(b1-3)Gal(b1-4)GlcNAc(b1-6)[Gal(b1-3)]GalNAc
Procedure, shortened: as §1

[11] = molecular target: Gal(b1-4)GlcNAc(b1-3)Gal(b1-4)[Fuc(a1-3)]GlcNAc(b1-3)Gal(b1-4)[Fuc(a1-3)]GlcNAc
Procedure, shortened: as §1

[12] = molecular target: Gal(b1-4)GlcNAc(b1-3)GalNAc
Procedure, shortened: as §1

[13] = molecular target: Gal(b1-4)GlcNAc(b1-3)[Fuc(a1-3)GlcNAc(b1-6)]Gal(b1-4)Glc
Procedure, shortened: as §1

[14] = molecular target: Gal(b1-4)GlcNAc(b1-3)[Gal(b1-4)GlcNAc(b1-6)]Gal(b1-4)GlcNAc
Procedure, shortened: as §1

[15] = molecular target: Gal(b1-4)GlcNAc(b1-3)[GlcNAc(b1-6)]Gal(b1-4)GlcNAc
Procedure, shortened: as §1

[16] = molecular target: Gal(b1-4)GlcNAc(b1-6)Gal(b1-4)GlcNAc
Procedure, shortened: as §1

[17] = molecular target: Gal(b1-4)GlcNAc(b1-6)GalNAc
Procedure, shortened: as §1

[18] = molecular target: Gal(b1-4)GlcNAc(b1-6)[Gal(b1-3)]GalNAc
Procedure, shortened: as §1

[19] = molecular target: Gal(b1-4)GlcNAc(b1-6)[Gal(b1-4)GlcNAc(b1-3)]GalNAc
Procedure, shortened: as §1

Gal(b1-4)GlcNAc6P = molecular target: Gal(b1-4)GlcNAc6P
Procedure, shortened: as §1

Gal(b1-6)Gal = molecular target: Gal(b1-6)Gal
Procedure, shortened: as §1

Gal3S(b1-3)GalNAc = molecular target: Gal3S(b1-3)GalNAc
Procedure, shortened: as §1

Gal3S(b1-3)GlcNAc = molecular target: Gal3S(b1-3)GlcNAc
Procedure, shortened: as §1

[20] = molecular target: Gal3S(b1-3)[Fuc(a1-4)]GlcNAc
Procedure, shortened: as §1

Gal3S(b1-4)Glc = molecular target: Gal3S(b1-4)Glc
Procedure, shortened: as §1

Gal3S(b1-4)Glc6S = molecular target: Gal3S(b1-4)Glc6S
Procedure, shortened: as §1

Gal3S(b1-4)GlcNAc = molecular target: Gal3S(b1-4)GlcNAc
Procedure, shortened: as §1

[21] = molecular target: Gal3S(b1-4)[Fuc(a1-3)]Glc6S
Procedure, shortened: as §1

[22] = molecular target: Gal3S(b1-4)[Fuc(a1-3)]GlcNAc
Procedure, shortened: as §1

[23] = molecular target: Gal3S(b1-4)[Fuc(a1-3)]GlcNAc6S
Procedure, shortened: as §1

Gal3S4S(b1-4)GlcNAc = molecular target: Gal3S4S(b1-4)GlcNAc
Procedure, shortened: as §1

Gal3S6S(b1-4)GlcNAc = molecular target: Gal3S6S(b1-4)GlcNAc
Procedure, shortened: as §1

Gal3S6S(b1-4)GlcNAc6S = molecular target: Gal3S6S(b1-4)GlcNAc6S
Procedure, shortened: as §1

Gal4S(b1-4)GlcNAc = molecular target: Gal4S(b1-4)GlcNAc
Procedure, shortened: as §1

Gal4S6S(b1-4)GlcNAc = molecular target: Gal4S6S(b1-4)GlcNAc
Procedure, shortened: as §1

Gal6P(b1-4)GlcNAc = molecular target: Gal6P(b1-4)GlcNAc
Procedure, shortened: as §1

Gal6S(b1-3)GlcNAc = molecular target: Gal6S(b1-3)GlcNAc
Procedure, shortened: as §1

Gal6S(b1-3)GlcNAc6S = molecular target: Gal6S(b1-3)GlcNAc6S
Procedure, shortened: as §1

B1: Epa6 (Candida glabrata), Q6DTM7_CANGB (protein)
chain: MGSSHHHHHHSSGLVPRGSHMKDDYSSSLSNNNLGWTDPTEFPLGCSPNVTTPKNGLSMELYSYDYLKSGSNPCWDAAYLDPNYPRTGYKSHRLLAKVENVAGNINFYYHAPMGCTSLFDTLPQAYNYRTPLTMTNFTMLLYGYFKPKVTGYHTFTISADDLLFVNFGAGNAFDCCKRESSADDFGNYQAYAVWGSQTAKDDLTVHLDAGLYYPIRIFFNNRDNDGALSLTLKTESDPNPVIDFSDYFYSFDDTKDGCPGLVSYDTS
glycan array binding signal (z-score) [1]: 0.07 | glycan array binding signal (z-score) [2]: -0.012 | glycan array binding signal (z-score) [3]: 0.124 | glycan array binding signal (z-score) [4]: -0.016 | glycan array binding signal (z-score) [5]: -0.014 | glycan array binding signal (z-score) [6]: 0.286 | glycan array binding signal (z-score) [7]: 0.013 | glycan array binding signal (z-score) [8]: -0.254 | glycan array binding signal (z-score) [9]: -0.214 | glycan array binding signal (z-score) [10]: 0.331 | glycan array binding signal (z-score) [11]: -0.186 | glycan array binding signal (z-score) [12]: -0.252 | glycan array binding signal (z-score) [13]: -0.246 | glycan array binding signal (z-score) [14]: -0.078 | glycan array binding signal (z-score) [15]: -0.214 | glycan array binding signal (z-score) [16]: 0.042 | glycan array binding signal (z-score) [17]: -0.236 | glycan array binding signal (z-score) [18]: 0.781 | glycan array binding signal (z-score) [19]: -0.202 | glycan array binding signal (z-score) (Gal(b1-4)GlcNAc6P): -0.295 | glycan array binding signal (z-score) (Gal(b1-6)Gal): 1.33 | glycan array binding signal (z-score) (Gal3S(b1-3)GalNAc): -0.335 | glycan array binding signal (z-score) (Gal3S(b1-3)GlcNAc): -0.277 | glycan array binding signal (z-score) [20]: -0.276 | glycan array binding signal (z-score) (Gal3S(b1-4)Glc): -0.284 | glycan array binding signal (z-score) (Gal3S(b1-4)Glc6S): -0.267 | glycan array binding signal (z-score) (Gal3S(b1-4)GlcNAc): -0.274 | glycan array binding signal (z-score) [21]: -0.067 | glycan array binding signal (z-score) [22]: -0.295 | glycan array binding signal (z-score) [23]: -0.254 | glycan array binding signal (z-score) (Gal3S4S(b1-4)GlcNAc): -0.27 | glycan array binding signal (z-score) (Gal3S6S(b1-4)GlcNAc): -0.306 | glycan array binding signal (z-score) (Gal3S6S(b1-4)GlcNAc6S): -0.263 | glycan array binding signal (z-score) (Gal4S(b1-4)GlcNAc): -0.326 | glycan array binding signal (z-score) (Gal4S6S(b1-4)GlcNAc): 2.41 | glycan array binding signal (z-score) (Gal6P(b1-4)GlcNAc): -0.315 | glycan array binding signal (z-score) (Gal6S(b1-3)GlcNAc): -0.223 | glycan array binding signal (z-score) (Gal6S(b1-3)GlcNAc6S): -0.263
